# The full ranking holds about 33,000 sequences; the median of “E-score (-0.5 to 0.5)” is about -0.043, and the highest 2% start at about 0.37. Some of the results follow.
# Biological target: T1, Upc2 (UniProt Q12151)
# T1 sequence: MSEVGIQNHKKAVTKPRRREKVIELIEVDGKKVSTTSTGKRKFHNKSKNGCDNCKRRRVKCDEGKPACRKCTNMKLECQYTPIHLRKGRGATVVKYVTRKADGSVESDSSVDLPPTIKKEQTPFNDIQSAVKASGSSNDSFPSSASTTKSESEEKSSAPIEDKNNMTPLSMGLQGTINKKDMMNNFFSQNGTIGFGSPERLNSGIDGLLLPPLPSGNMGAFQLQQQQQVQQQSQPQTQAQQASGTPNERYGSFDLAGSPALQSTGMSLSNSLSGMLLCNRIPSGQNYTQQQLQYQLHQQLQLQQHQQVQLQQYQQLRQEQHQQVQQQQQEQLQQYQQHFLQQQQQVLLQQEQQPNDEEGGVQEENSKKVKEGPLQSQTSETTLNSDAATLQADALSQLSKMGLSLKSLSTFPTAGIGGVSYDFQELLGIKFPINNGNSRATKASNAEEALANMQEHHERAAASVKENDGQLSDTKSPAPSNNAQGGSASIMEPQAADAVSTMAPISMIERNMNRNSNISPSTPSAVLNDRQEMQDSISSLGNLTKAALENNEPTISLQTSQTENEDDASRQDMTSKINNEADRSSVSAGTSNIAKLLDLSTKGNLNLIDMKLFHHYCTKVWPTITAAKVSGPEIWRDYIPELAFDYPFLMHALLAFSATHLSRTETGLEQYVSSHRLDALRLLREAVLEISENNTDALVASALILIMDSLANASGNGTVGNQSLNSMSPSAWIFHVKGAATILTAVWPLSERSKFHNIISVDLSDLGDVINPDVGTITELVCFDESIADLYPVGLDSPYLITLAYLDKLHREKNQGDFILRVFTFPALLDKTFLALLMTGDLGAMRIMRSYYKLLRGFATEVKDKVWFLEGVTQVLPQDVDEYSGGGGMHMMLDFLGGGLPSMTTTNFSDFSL
# Experiment: PBM E-score (8-mer binding enrichment) (E-score (-0.5 to 0.5)); higher = stronger / more preferred TF binding; most listed sequences are background and not binding sites
# Settings: protein concentration: 200 nM; construct: GST-full length
# How it was run: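 Bound GST-tagged yeast transcription factors, applied at about 100-200 nM to double-stranded universal all-10-mer Agilent arrays, were detected with fluorescent anti-GST. Scans were normalised with masliner. A modified Wilcoxon-Mann-Whitney statistic, the E-score, was assigned to each ungapped eight-base word pooled with its reverse complement by the Universal PBM Analysis Suite.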
row,Sequence,PBM E-score
1,CCTCGCGC,0.089
2,CTCATAAA,-0.0402
3,ATACCTGA,-0.0527
4,CCTAGACA,-0.257
5,CGATTTGC,-0.0413
6,ATCTAGAG,-0.135
7,ATCTATGA,-0.0565
8,AGGCCCCG,-0.192
9,CAGGTGAC,-0.236
10,CGGTCCTC,-0.0244
11,CGAAACTA,0.197
12,GGTCATGA,0.0317
13,ATGTGTAG,0.0504
14,CTCGTGTA,0.342
15,GCGATCGC,0.204
16,GGAGGTAA,-0.0831
17,AGAGCTCA,-0.346
18,ACCTCATA,-0.125
19,CGCTGTGA,-0.0925
20,AGCCGGTA,-0.0794
21,CCCCCCAG,-0.318
22,GGCTTGAC,-0.318
23,ACAATGAA,-0.0352
24,CGCGACGC,0.155
25,TCAAGCGA,0.196

row,Sequence,PBM E-score
1,CCGGCGCA,-0.0021
2,CAAGACAC,-0.113
3,CGTACTCA,0.201
4,GGGACAGA,-0.0767
5,GATTACAA,0.0744
6,ATTGGTCG,-0.00448
7,AATGCTCT,-0.106
8,CCCTCCTA,-0.122
9,GCAAATAC,0.0681
10,GACTGAGC,-0.26
11,CATCATAC,0.14
12,ATTATCGA,-0.101
13,GGGGTCGA,-0.257
14,ATATCGAG,-0.124
15,ACGAAGCA,0.344
16,AAGCATAG,0.0417
17,ACAGTTGG,-0.0833
18,GATGGAAC,0.0656
19,GCCTAGTA,-0.0743
20,AGAGTTAC,-0.0211
21,CATTATAA,0.249
22,AATGTTTG,-0.00303
23,CGTATGCA,0.377
24,CAGCCAGA,-0.111
25,GAAAGCTC,-0.15

row,Sequence,PBM E-score
1,AAAAGAGT,-0.0578
2,AGAGAGGC,-0.355
3,CAATATTG,-0.0814
4,AGATTCAA,-0.0749
5,AATTGTCA,-0.0435
6,CGGGGCCC,0.0837
7,TAGACAGA,-0.068
8,ACCGATTG,0.0763
9,AACATGCT,-0.0382
10,GTAACGAA,0.325
11,CCCATACG,0.407
12,CCGCGGTA,0.108
13,CAACGAGA,0.314
14,GCTCTTAC,0.149
15,TGCTCAAA,0.0248
16,GAGGGTCA,-0.0962
17,GTACATGA,0.226
18,CTGGCATA,-0.185
19,TCTAGTCA,-0.034
20,CACCACGC,-0.221
21,CAACGAGG,0.278
22,CATAAGCC,-0.116
23,AGAACGCT,-0.08
24,CCAATACG,0.326
25,GACACGGA,0.0341

row,Sequence,PBM E-score
1,AAGAAATT,0.0426
2,GACCTACA,-0.105
3,AAGCGTGG,-0.0633
4,ACTTCAGC,-0.178
5,GGATTACC,-0.126
6,TGTGACAA,-0.105
7,GATAGGAA,-0.0663
8,TTCCAGAA,0.0881
9,CTTACCCA,-0.112
10,CTGCAATA,0.04
11,GAGATACA,0.00195
12,AGGATCAG,-0.198
13,AAAACGGA,0.089
14,CGTATCAC,0.364
15,CATTGTAC,0.288
16,ACAGCAAC,0.0613
17,GTTTCCTA,-0.0102
18,ATCCTAAG,-0.0385
19,CAGCGGGG,-0.165
20,GATACAAA,0.106
21,AAAGACGT,0.0596
22,CATGGTAG,-0.249
23,GCTAGGAC,-0.23
24,TCCCTCAA,-0.193
25,ACGTGTCG,0.12

row,Sequence,PBM E-score
1,GATTCGGA,0.11
2,ATGGTCGC,0.00642
3,CATTGGCC,-0.225
4,GGATATAA,-0.0447
5,CCTACCCA,-0.122
6,CATCTAGA,0.0683
7,TGTTAACA,-0.171
8,ACTTTTAG,0.0244
9,ACATAAGC,-0.0498
10,GTGCACCA,-0.0747
11,ATACTCAG,0.0421
12,CCATGATA,-0.0551
13,AGAGACCT,-0.156
14,CAGTTGAG,-0.255
15,GCCTCGGA,0.135
16,ACACACAT,0.0698
17,GACTCTCA,-0.187
18,CAGATAGC,-0.269
19,GGCCGGGA,-0.0423
20,TACGTCTA,0.123
21,AGGTCGTC,0.0416
22,AATCACAT,-0.157
23,AAGTACTT,-0.0695
24,GCTGCGAA,0.0876
25,CGACACAA,0.0708

row,Sequence,PBM E-score
1,ACACAGCC,-0.115
2,GGTTCTTA,-0.0238
3,AGATCACT,-0.0701
4,CTAGCATA,-0.092
5,GATAACTA,-0.125
6,AACCCGTA,0.283
7,CTGAGCGC,-0.0276
8,AAGGAGTC,-0.0968
9,CGGAAGGA,-0.252
10,ACTGATAC,0.115
11,ATTGACAC,-0.126
12,AAATCTGC,-0.106
13,GCTCGCCC,-0.17
14,ATGGTTCA,-0.0769
15,CCTTAGAA,-0.183
16,GTTCACAA,0.195
17,CTTGATCC,-0.129
18,AAATGGTA,0.159
19,AAAATGCC,0.123
20,GGCGTGAC,-0.276
21,GATGCCGA,0.0445
22,GCTGGAGA,-0.124
23,AACATCCT,-0.165
24,AGACGGCT,-0.251
25,GCCGGGTA,-0.143

row,Sequence,PBM E-score
1,ACACTTGC,-0.177
2,GTATAACA,0.307
3,GCTGAGAC,-0.203
4,CGAGCTAA,0.124
5,AGGCCTAT,-0.12
6,GCTAATGA,-0.0954
7,GATGCAAA,-0.0157
8,GCGGTCCA,-0.178
9,GAGGTCAA,-0.0747
10,GAAGAGGC,-0.108
11,ATCCAACC,-0.11
12,AGCGTAGG,-0.204
13,CGTCCGGC,-0.0931
14,AAACCGGT,-0.0242
15,CCGGTTCA,-0.152
16,GCTATCAA,0.0193
17,AGGTTATG,-0.0442
18,CGCGCGTA,0.242
19,AACAAATC,0.137
20,TGTCTCAA,-0.13
21,GTCTACCA,-0.135
22,TATACCAA,0.117
